About 14,000 (4.5%) of roughly 310,000 compounds showed an effect of 50% or more. The effect is printed as a negative number. The list shows a part of the results.
Biological target: human ether-à-go-go-related gene (hERG) potassium channel (human, UniProt Q12809)
Assay: primary screen, population patch clamp on CHO cells stably expressing hERG
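Also: peak tail current of the secondary pulse compared with the same well before compound.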

Sequence of human ether-à-go-go-related gene (hERG) potassium channel (Q12809 whole entry, looked up): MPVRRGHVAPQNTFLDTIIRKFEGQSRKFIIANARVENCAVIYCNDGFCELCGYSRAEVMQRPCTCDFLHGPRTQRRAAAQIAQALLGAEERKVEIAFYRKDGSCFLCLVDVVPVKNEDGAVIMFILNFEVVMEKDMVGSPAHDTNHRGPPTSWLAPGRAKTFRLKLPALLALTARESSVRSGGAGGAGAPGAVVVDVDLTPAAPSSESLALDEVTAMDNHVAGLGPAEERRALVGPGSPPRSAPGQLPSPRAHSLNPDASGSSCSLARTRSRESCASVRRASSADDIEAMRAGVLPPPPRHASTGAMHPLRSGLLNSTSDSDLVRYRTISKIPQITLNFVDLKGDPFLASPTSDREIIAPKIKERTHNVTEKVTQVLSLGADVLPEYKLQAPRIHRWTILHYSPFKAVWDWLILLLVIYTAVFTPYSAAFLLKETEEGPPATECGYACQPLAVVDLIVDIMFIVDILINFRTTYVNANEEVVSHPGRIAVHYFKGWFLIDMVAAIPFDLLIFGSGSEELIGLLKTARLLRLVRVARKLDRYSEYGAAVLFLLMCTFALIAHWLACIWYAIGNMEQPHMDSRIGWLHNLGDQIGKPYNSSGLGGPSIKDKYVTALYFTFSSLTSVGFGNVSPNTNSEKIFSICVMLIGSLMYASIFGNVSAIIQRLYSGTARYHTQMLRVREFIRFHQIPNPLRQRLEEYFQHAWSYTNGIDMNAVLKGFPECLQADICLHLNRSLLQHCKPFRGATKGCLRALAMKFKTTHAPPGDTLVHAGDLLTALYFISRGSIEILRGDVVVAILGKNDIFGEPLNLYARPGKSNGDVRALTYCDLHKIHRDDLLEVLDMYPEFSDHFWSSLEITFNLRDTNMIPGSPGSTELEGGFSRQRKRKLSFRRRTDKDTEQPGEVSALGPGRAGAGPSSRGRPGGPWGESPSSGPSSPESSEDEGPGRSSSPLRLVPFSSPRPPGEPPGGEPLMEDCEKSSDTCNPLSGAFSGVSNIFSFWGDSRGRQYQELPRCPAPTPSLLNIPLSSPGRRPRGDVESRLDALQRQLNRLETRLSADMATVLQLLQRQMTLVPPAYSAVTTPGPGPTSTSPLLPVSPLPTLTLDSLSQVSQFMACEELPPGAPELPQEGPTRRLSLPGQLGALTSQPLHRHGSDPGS

SMILES | hERG current change (%, negative = inhibition) at 10uM
COC(=O)c1c(NC(=O)CSc2nnc(Cn3nnc4ccccc43)n2C)sc(C)c1C | -62.7%
O=C(COC(=O)c1ccccc1Nc1ccccc1)Nc1ccccc1 | 14.5%
CCCOc1ccc(C(=O)O/N=C(\CC)c2ccc(C)cc2)cc1 | -2.29%
C/C(CC(=O)Nc1ccc2c(c1)OCCO2)=N\NC(=O)C(=O)Nc1ccccc1C | 0.439%
COCCCNC(=O)CSc1nc2cc(S(=O)(=O)N3CCCCC3)ccc2o1 | -0.889%
CCN(CC)S(=O)(=O)c1ccc2c(c1)nc(CCC(=O)O)n2C | 6.87%
CCn1nc(C)c(NC(=O)c2cnn3c(C(F)F)cc(-c4ccccc4)nc23)c1C | -11.9%
COC(=O)C[C@H]1c2ccccc2S(=O)(=O)N1C(C)C | 11.2%
Cc1cccc(CS(=O)(=O)c2nnc([C@H](Cc3ccccc3)NC(=O)OC(C)(C)C)o2)c1 | 2.87%
CC(=O)c1ccccc1OCCOc1ncnc2sccc12 | -0.697%
Cc1cc(C)n(C(=O)COc2ccc(Cl)cc2Cl)n1 | 5.59%
CSCCC(NS(=O)(=O)c1ccc(C)cc1)C(=O)N1CCN(C(C)=O)CC1 (centres unmarked) | 3.56%
C=CCn1c(SCC(=O)Nc2nncs2)nnc1-c1ccco1 | 14.3%
O=C(Cc1ncc(C(F)(F)F)cc1Cl)Nc1ccc(F)cc1 | 8.49%
O=S(=O)(NCc1ccc(Cl)cc1)c1cnc[nH]1 | 5.18%
CSc1ccccc1C(=O)C1CCCN(C(=O)c2ccc(N3CCOCC3)cc2)C1 (centres unmarked) | -12.2%
COc1ccc(-n2c(-c3cccc(C)c3[N+](=O)[O-])n[nH]c2=S)cc1 | 11.7%
CCCCN(CC)C(=O)Cc1ccccc1OC | 16.2%
CN(C)C(=O)Cn1nc(-c2ccccc2)c2ccccc2c1=O | 2.62%
CC(C)(C)c1ccc(C(=O)n2cnc3ccccc32)cc1 | 18.7%
Cc1noc(C)c1C(=O)N1CCN(S(=O)(=O)c2cccs2)CC1 | 15.7%
Cc1ccc(OCC(=O)Nc2ccccc2C(=O)N2CCCC2)cc1 | -14.2%

SMILES | hERG current change (%, negative = inhibition) at 10uM
Cc1ccc(-c2csc3nc(SCC(=O)Nc4ccc(Cl)c(C(=O)O)c4)[nH]c(=O)c23)cc1 | 2.38%
COC(=O)c1c(C(=O)OC)c(-c2ccc(F)cc2)n2c1CS(=O)C2 (centres unmarked) | 26.7%
Fc1ccccc1-c1nc(-c2ccc(Cl)cc2)no1 | 5.58%
Cc1cc(NS(=O)(=O)c2ccc(NC(=O)CCc3ccccc3)cc2)no1 | 12.2%
Cc1cccc(NC(=O)CSc2nnc(NC(=O)c3ccc(S(=O)(=O)N4CCOCC4)cc3)s2)c1C | 0.662%
CN(c1ccccc1)S(=O)(=O)c1ccc(C(=O)Nc2ccncc2)cc1 | -9.83%
Cc1ccc(Nc2nnc(SCC(=O)NCCN3C(=O)CSC3=O)s2)cc1 | -12.3%
CCN(Cc1ccccc1)S(=O)(=O)CCNC(=O)c1ccccc1 | -26.5%
CCN1CCN(c2cc(C)c3cc(NC(=O)CCC(=O)Nc4ccc(OC)c(OC)c4)ccc3n2)CC1 | 4.85%
Cl.O=C(CN1CCCCCC1)N1c2ccccc2C=Cc2ccccc21 | -26.1%
O=C(/C=C/c1ccccc1)OCC(=O)N1CCN(c2ccccc2)CC1 | 1.92%
CCOC(=O)c1c(C)n(Cc2ccccc2)c2ccc(O)cc12 | 4.43%
O=C(COC(=O)Cc1ccccc1[N+](=O)[O-])Nc1nnc(-c2ccccc2)o1 | 12.4%
Cc1c(C)c2c(OCC(=O)NCc3ccncc3)cc3c(c2oc1=O)CCC(C)(C)O3 | 7.03%
CCOc1cc(Br)ccc1S(=O)(=O)NCc1ccccc1 | -30.3%
COC(=O)c1ccc(CSCc2ccc(C(=O)OC)o2)o1 | 13%
COC(=O)c1ccc(C)c(NC(=O)CN(c2ccc3c(c2)OCO3)S(C)(=O)=O)c1 | 6.5%
Cc1ccc(S(=O)(=O)CCCS(=O)(=O)c2ccc(C)cc2)cc1 | -21.3%
CN(C)C(=O)CSc1nc(-c2ccccc2)nc2c1CCCC2 | -5.09%
COc1cc(NS(=O)(=O)c2ccc3c(c2)oc(=O)n3C)cc(OC)c1OC | 14.8%
Cc1nnc(NC(=O)CCSc2ccc(Cl)cc2)s1 | -6.36%
Cc1cccc(N2CCN(CC(O)COCc3cccs3)CC2)c1C (centres unmarked) | -70.8%
